Experimental data taken from PubChem BioAssay AID504333 (National Center for Advancing Translational Sciences (NCATS), 2011).
The campaign covered roughly 360,000 compounds. About 16,000 (4.4%) were called active. The shares of active, inactive and inconclusive entries below differ from those in the screen. Calls come from the whole dose curve; as a rule, active = well fitted inhibition curve with a large enough effect; inconclusive = small, poorly fitted or top-dose-only effect; inactive = no such curve, though single readings can be large or run the other way. Potencies beside an inconclusive call are fits to weak or partial responses and may not hold up.

These compounds were tested against Bromodomain adjacent to zinc finger domain protein 2B (Homo sapiens) (UniProt Q9UIF8) (assay: qHTS Assay for Inhibitors of BAZ2B). Conditions: AlphaScreen BAZ2B-H3K14Ac peptide displacement; series mostly up to 114 µM.
UniProt Q9UIF8, sequence (Q9UIF8 whole entry, looked up, the tested form may be a part): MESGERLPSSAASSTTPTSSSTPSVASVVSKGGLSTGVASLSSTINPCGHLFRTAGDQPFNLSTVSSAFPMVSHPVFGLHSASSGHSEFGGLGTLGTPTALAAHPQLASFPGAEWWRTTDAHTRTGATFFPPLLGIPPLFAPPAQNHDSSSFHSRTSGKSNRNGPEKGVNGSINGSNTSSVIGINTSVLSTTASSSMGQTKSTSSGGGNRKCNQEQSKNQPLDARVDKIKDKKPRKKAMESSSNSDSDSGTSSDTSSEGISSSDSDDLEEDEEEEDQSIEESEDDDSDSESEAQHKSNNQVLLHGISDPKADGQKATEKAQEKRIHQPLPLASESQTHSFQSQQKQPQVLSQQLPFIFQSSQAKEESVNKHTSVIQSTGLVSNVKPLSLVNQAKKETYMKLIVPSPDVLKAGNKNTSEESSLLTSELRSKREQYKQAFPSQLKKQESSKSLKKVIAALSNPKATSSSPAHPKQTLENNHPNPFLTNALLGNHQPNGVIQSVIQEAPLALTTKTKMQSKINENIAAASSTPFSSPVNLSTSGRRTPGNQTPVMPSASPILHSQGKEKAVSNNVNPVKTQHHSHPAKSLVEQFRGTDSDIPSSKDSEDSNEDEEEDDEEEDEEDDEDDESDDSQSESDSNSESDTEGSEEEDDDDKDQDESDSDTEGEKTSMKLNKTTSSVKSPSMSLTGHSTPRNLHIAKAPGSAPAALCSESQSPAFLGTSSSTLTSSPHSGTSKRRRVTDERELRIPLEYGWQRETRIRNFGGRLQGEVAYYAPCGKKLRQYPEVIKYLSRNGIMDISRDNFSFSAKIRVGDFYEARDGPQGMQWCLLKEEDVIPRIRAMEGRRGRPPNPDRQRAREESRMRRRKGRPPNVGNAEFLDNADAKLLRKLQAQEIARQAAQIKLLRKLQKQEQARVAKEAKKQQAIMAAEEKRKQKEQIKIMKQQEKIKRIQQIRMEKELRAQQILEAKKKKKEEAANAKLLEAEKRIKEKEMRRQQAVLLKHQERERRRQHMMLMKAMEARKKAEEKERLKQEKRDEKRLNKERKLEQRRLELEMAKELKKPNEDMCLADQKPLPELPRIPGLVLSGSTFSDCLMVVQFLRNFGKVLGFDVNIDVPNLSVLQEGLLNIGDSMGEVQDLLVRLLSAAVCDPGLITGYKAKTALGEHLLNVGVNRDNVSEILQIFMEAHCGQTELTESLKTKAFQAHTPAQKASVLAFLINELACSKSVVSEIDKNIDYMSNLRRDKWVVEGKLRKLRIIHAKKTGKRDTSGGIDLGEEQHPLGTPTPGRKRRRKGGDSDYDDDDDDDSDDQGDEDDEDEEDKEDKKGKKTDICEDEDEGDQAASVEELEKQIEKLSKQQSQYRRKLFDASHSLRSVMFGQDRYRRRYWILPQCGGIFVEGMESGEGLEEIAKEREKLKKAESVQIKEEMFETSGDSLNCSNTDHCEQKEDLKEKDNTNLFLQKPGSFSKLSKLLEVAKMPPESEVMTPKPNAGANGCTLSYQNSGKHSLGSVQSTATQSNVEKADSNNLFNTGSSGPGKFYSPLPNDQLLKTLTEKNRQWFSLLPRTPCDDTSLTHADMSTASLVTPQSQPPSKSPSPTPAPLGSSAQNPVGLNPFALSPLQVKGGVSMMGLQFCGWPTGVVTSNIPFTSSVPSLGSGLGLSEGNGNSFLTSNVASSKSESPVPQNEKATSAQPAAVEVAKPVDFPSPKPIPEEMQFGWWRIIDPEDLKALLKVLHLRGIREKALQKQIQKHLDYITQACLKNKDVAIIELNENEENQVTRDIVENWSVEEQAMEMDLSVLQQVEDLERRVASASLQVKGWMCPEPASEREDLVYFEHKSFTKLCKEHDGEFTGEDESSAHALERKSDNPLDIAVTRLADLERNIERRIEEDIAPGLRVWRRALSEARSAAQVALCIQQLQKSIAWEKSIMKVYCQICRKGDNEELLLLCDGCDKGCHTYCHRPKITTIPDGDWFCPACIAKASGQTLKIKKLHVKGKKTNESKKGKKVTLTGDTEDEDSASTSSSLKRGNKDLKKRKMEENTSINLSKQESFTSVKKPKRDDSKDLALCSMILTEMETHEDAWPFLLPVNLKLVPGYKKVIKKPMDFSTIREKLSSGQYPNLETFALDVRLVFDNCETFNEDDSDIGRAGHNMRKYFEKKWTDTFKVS
Method in brief: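 Compounds, titrated to a top concentration of 110 uM, were incubated 30 min at room temperature with preformed BAZ2B/acetyl-K14 H3 peptide complex (50 nM each). Proximity signal was measured by AlphaScreen after 20 min with beads.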
Note: nearly all actives have a fitted effect of over 60% in size.
Potency is the fitted concentration of half-maximal effect; tags give direction and shape of the fitted curve.

Structure (SMILES) | Potency
O=C(NC(=S)Nc1ccccc1N1CCOCC1)c1ccc([N+](=O)[O-])cc1 | inconclusive: 28.2 µM [inhibitor, full curve]
O=C(CNC1CCCCCC1)Nc1ccccc1N1CCCCC1 | inconclusive: 39.8 µM [inhibitor, single point]
CN(C)CCSc1nc(-c2ccccc2)nc2c1COC(C)(C)C2 | inactive
CN(C)c1ccc(CN(C(=O)/C=C/c2ccccc2Cl)C2CCS(=O)(=O)C2)cc1 (centres undefined) | active: 25.1 µM
Cc1ccc(C(=O)Nc2ncccc2O)cc1S(=O)(=O)N1CCCCC1 | inconclusive: 79.4 µM [inhibitor, single point]
Cc1cc(C(=O)CSc2nnnn2C)c(C)n1C1CC1 | inconclusive: 70.8 µM [inhibitor, partial curve]
Cc1ccc(Sc2ncccc2C(=O)NCc2cc([N+](=O)[O-])ccc2O)c(C)c1 | active: 35.5 µM
O=C(Nc1cccc(-n2cccn2)c1)C1CCCN(Cc2cc3ccccc3[nH]2)C1 (centres undefined) | active: 70.8 µM
Nc1ccc(-c2ccc(N)c([N+](=O)[O-])c2)cc1[N+](=O)[O-] | inactive
COC(=O)C1CCN(C(=O)/C=C/c2ccc3c(c2)OCO3)CC1 | inactive
Cc1cccc(CN2CCN(c3ncccn3)CC2)c1 | inconclusive: 89.1 µM [inhibitor, single point]
O=C1CC(c2ccc(OCCCCCOc3ccc(C4CC(=O)NC4=O)cc3)cc2)C(=O)N1 (centres undefined) | inconclusive: 44.7 µM [inhibitor, partial curve]
Cc1cccc(N2CCN(C(=O)Cn3c(=O)[nH]c4ccsc4c3=O)CC2C)c1 (centres undefined) | inconclusive: 3.98 µM [inhibitor, partial curve, poor fit]
CCOC(=O)c1ccccc1NC(=O)CSc1nnc(CC)n2c1cc1occc12 | inconclusive: 31.6 µM [inhibitor, full curve, poor fit]
COc1ccc(CCC(=O)NCc2cn3ccccc3n2)cc1 | inactive
CCOc1c(C(N)=O)cc([N+](=O)[O-])cc1[N+](=O)[O-] | inactive
CC(=O)Nc1ccc2c(c1)C(C)(C)C(C)N2C (centres undefined) | inconclusive: 44.7 µM [inhibitor, partial curve]
O=C(C1CCN(S(=O)(=O)c2ccccc2)CC1)N1CCc2ccccc21 | inactive
O=C(CSc1nc2ccccc2n1CCc1ccccc1)NC1CCS(=O)(=O)C1 (centres undefined) | inactive
Nc1c(C(=O)Nc2cccc(F)c2)nnn1-c1ccc2c(c1)OCCO2 | inactive
Nc1cccn2c(-c3ccc(Cl)c(Cl)c3)cnc12 | active: 39.8 µM
COc1cccc(-c2nc(CS(=O)(=O)CC(=O)Nc3cccc(C(C)=O)c3)c(C)o2)c1 | inconclusive: 20 µM [inhibitor, full curve]
CCc1ccc(-n2ccc(=O)c(C(=O)O)n2)cc1 | inactive
O=C(CN1CCN(c2ccc(F)cc2)CC1)Nc1ccccc1[N+](=O)[O-] | inconclusive: 20 µM [inhibitor, full curve]
CC(=O)NCCNC(=O)c1ccc(-n2c(C)ccc2C)cc1 | inconclusive: 89.1 µM [inhibitor, single point]

Structure (SMILES) | Potency
Cc1ccc(O)c(NC(=O)CCS(=O)(=O)c2nc(-c3cccs3)cc(C(F)(F)F)n2)c1 | inconclusive: 50.1 µM [inhibitor, partial curve]
Cc1cccc(-n2cnc3cc(C(=O)NCc4ccccc4Cl)ccc32)c1 | inconclusive: 28.2 µM [inhibitor, single point]
N#CC(C#N)=Cc1cccn1-c1ccc(C(=O)O)cc1 | active: 20 µM
COc1ccc(C2c3c(ncn(Cc4ccco4)c3=N)Oc3ccc4ccccc4c32)cc1 (centres undefined) | inconclusive: 39.8 µM [inhibitor, partial curve]
Oc1ccc(Cl)cc1/C=N/c1nccs1 | inconclusive: 79.4 µM [inhibitor, single point]
Cc1ccc(S(=O)(=O)/N=C/c2ccco2)cc1 | inconclusive: 89.1 µM [inhibitor, single point]
Cc1ccc(NC(=S)Nn2cnnc2)c(C)c1 | inconclusive: 89.1 µM [inhibitor, single point]
CCOC(=O)c1[nH]cnc1C(=O)Nc1ccncc1 | active: 50.1 µM
COc1ccc(N2CCN(c3ncnc4scc(-c5ccccc5)c34)CC2)cc1 | active: 14.1 µM
Cc1cc2c(cc1S(=O)(=O)Nc1ccc(C(C)C)cc1)OCCN2C | inconclusive: 39.8 µM [inhibitor, single point]
COc1cccc(CN2C(=O)c3cccc(N)c3C2=O)c1 | inactive
O=C(Nc1ccccc1F)c1cnc(N2CCCCC2)c2ccccc12 | inactive
N#Cc1nc(Cc2ccccc2)oc1N1CCN(c2ccccc2)CC1 | active: 10 µM
COC(=O)NNC(=O)C12CC3CC(CC(C3)C1)C2 | inactive
Cc1sc(-c2ccccn2)nc1OC(=O)c1ccc(Cl)c(Cl)c1 | inactive
CC(=O)C1=C(O)C(=O)N(c2ccc(C(=O)O)cc2)C1c1ccccc1 (centres undefined) | inconclusive: 89.1 µM [inhibitor, single point]
CN1CCN(CC(=O)Nc2nc(-c3c[nH]c4ccccc34)cs2)CC1 | inconclusive: 50.1 µM [inhibitor, partial curve]
COC(=O)COc1ccc2c(c1C)O/C(=C\c1ccco1)C2=O | active: 50.1 µM
CCN(CC)c1ccc(/C=N/N2CCN(Cc3ccccc3Cl)CC2)cc1 | active: 7.08 µM
CC(Oc1ccccc1F)C(=O)NNC(=O)CCS(=O)(=O)c1ccccc1Cl (centres undefined) | inactive
O=C(NNS(=O)(=O)c1ccc(Cl)cc1)c1cnn(-c2ccccc2)c1-n1cccc1 | inconclusive: 89.1 µM [inhibitor, single point]
CSc1nnc(C)c(/C=C/NOCc2ccc(Cl)cc2)n1 | inconclusive: 89.1 µM [inhibitor, single point]
COC(=O)c1cc(OC)c(OC)cc1NC(=S)N1CCN(c2ccccn2)CC1 | inconclusive: 50.1 µM [inhibitor, partial curve]
Oc1ccc(N=Nc2cccc(C(F)(F)F)c2)cc1C=Nc1ccc(N2CCOCC2)cc1 | inconclusive: 4.47 µM [inhibitor, full curve, poor fit]
Cc1ccc(C2C(=O)c3ccccc3C2=O)cc1 | inconclusive: 79.4 µM [inhibitor, single point]

Structure (SMILES) | Potency
Cc1ccc(CNCc2ccco2)cc1 | active: 56.2 µM
Cc1ncc2c(c1OC(=O)c1ccccc1)COC(C)(C)OC2 | inactive
COc1ccc(-c2[nH]c(-c3cccc(OC)c3)nc2SCC(=O)NC2CCCC2)cc1 | inconclusive: 44.7 µM [inhibitor, partial curve]
CC(C)(C)C1CCc2c(sc(NC(=O)c3ccc(Cl)cc3)c2C(=O)NCc2ccco2)C1 (centres undefined) | inactive
COc1ccccc1N1CCN(c2ncnc3c2cnn3-c2cccc(Cl)c2)CC1 | inactive
CC(NC(=S)Nc1ccc(Cl)cc1Cl)C(c1cccs1)N1CCCC1 (centres undefined) | inconclusive: 89.1 µM [inhibitor, single point]
O=C1/C(=C/c2ccc(F)cc2)SC(=S)N1CCCC(=O)N1CCCCC1CCO (centres undefined) | inconclusive: 22.4 µM [inhibitor, full curve]
O=C(O)C1Nc2ccc(Br)cc2C2C=CCC12 (centres undefined) | active: 3.16 µM
CN1CCc2nc3sc(C(=O)C45CC6CC(CC(C6)C4)C5)c(N)c3cc2C1 | inconclusive: 56.2 µM [inhibitor, partial curve]
Cc1ccccc1CC(=O)NC1CCCc2ccccc21 (centres undefined) | inconclusive: 89.1 µM [inhibitor, single point]
C[C@H](NC(=O)c1ccc(Br)cc1)C(=O)NCc1ccc(S(N)(=O)=O)cc1 | inconclusive: 89.1 µM [inhibitor, single point]
CC(=O)c1c(C)[nH]c(C(=O)Nc2nccs2)c1C | inconclusive: 79.4 µM [inhibitor, single point]
CC(=O)N1N=C(c2ccc(C)o2)CC1c1ccc(Br)cc1 (centres undefined) | inconclusive: 79.4 µM [inhibitor, single point]
COC(=O)c1ccc(OCC2c3cc(OC)c(OC)cc3CCN2C(=O)Cc2ccccc2)cc1 (centres undefined) | inconclusive: 15.8 µM [inhibitor, full curve]
CN(CC(=O)NCc1ccccc1)S(=O)(=O)c1ccc2[nH]c3c(c2c1)CCCC3 | inconclusive: 50.1 µM [inhibitor, partial curve]
COc1ccc(C(N)CCc2ccco2)cc1 (centres undefined) | inconclusive: 79.4 µM [inhibitor, single point]
CC(=O)c1sc2nc(CSc3nnnn3-c3ccccc3)[nH]c(=O)c2c1C | inconclusive: 56.2 µM [inhibitor, partial curve]
CC(=O)Nc1cccc(NC(=O)C(=O)NCC(c2ccco2)N2CCc3ccccc3C2)c1 (centres undefined) | inactive
NC(=O)c1c(NC(NC(=O)c2ccco2)C(=O)c2ccc(Cl)cc2)sc2c1CCCC2 (centres undefined) | inconclusive: 70.8 µM [inhibitor, single point]
O=C(C#Cc1ccccc1)c1ccc([N+](=O)[O-])cc1 | inconclusive: 7.94 µM [inhibitor, full curve, poor fit]
CCOc1ccc(C2C(C(=O)Nc3ccccc3)=C(C)Nc3nc(SCc4cc(C)ccc4C)nn32)cc1 (centres undefined) | inactive
S=c1[nH]cc(-c2ccc(Cl)cc2)n1Cc1ccccc1 | inactive
COc1ccccc1C(C[N+](=O)[O-])c1c[nH]c2ccccc12 (centres undefined) | inconclusive: 70.8 µM [inhibitor, single point]
N#C/C(=N\Nc1cccc2ccccc12)c1nnc2n1CCCCC2 | inconclusive: 79.4 µM [inhibitor, single point]
